Measurements taken from US9777070B2, “Anti-PTK7 antibody-drug conjugates” (Pfizer Inc., priority 2014, dated 2017).

Columns and labels:
[1] = target: T1, PTK7 on H1975 and EKVX cells (Homo sapiens, UniProt Q13308); experiment: Flow cytometry cell binding of conjugated and unconjugated hu24
T1 construct: cancer cell lines with endogenous expression of PTK7; endogenous in cells; host or cells: cultured cancer cell lines (e.g. H661, H446, U2OS, H520, H1048, OE19, OE21, H1975, EKVX)
T1 sequence (Q13308 31-1070): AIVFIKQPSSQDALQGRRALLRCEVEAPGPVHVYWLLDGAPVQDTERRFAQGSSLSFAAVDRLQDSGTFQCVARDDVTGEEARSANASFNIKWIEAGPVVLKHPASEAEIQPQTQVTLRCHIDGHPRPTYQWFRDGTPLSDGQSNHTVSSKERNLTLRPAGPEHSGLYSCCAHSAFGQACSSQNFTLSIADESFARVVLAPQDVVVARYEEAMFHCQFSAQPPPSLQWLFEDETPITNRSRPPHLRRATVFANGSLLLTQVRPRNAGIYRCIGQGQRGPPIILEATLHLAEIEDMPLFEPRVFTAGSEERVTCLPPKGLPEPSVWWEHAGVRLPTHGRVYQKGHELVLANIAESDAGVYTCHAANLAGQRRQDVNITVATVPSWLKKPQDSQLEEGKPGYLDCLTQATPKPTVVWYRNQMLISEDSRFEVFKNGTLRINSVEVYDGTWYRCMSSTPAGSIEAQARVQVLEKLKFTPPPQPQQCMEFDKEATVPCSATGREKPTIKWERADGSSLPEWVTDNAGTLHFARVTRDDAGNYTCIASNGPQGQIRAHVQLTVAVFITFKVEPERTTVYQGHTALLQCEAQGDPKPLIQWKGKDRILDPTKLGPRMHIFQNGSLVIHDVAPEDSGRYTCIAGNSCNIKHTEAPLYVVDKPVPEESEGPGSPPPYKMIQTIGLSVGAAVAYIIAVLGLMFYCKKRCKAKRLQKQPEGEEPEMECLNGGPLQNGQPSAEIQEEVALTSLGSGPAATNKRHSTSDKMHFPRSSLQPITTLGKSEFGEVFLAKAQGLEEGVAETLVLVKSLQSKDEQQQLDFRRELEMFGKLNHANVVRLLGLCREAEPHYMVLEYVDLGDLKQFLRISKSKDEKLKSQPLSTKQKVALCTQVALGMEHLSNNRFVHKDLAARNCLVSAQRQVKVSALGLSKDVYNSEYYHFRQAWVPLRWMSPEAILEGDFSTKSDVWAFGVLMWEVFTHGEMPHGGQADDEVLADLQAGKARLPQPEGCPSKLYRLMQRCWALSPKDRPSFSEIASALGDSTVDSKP
Experimental: Briefly, adherent cells were dissociated with TrypLE™ Express (Gibco® No 12604-021) which was then neutralized with culture media. Suspension cells were harvested by centrifugation. Cells were resuspended in staining buffer (PBS with 3% BSA) with the stated concentration of mAb and incubated on ice for 30 minutes. Cells were washed in staining buffer, resuspended in staining buffer with phycoerythrin (PE)-labeled anti-human antibody (Jackson ImmunoResearch No 109-115-098) and incubated on ice for 30 minutes. Cells were washed, resuspended in staining buffer with 7-AAD viability stain (BD Biosciences, Pharmingen No 51-68981E) and analyzed by flow cytometry with a BD FACSCalibur™. The mean fluorescence intensity (MFI) in the PE channel of the viable cell population was determined for each sample.

BR5 TNBC PDX = experiment: In vivo efficacy, PDX tumor growth; set-up: species or system human tumor in mice
From the text: The effects of anti-PTK7 antibody-drug conjugates were further evaluated on the in vivo growth of human tumor patient-derived xenografts (PDX). Primary tumor resection samples were procured from clinical sites following Institutional Review Board for the Protection of Human Subjects approval and in accordance with HIPAA regulations. Tumor fragments were stored and shipped in Hypothermasol (Biolife Solutions) on ice and were embedded in Matrigel (BD) containing a proprietary mix of growth factors and implanted subcutaneously into the mammary fatpad of female NOD/SCID mice within 24 hours of resection. Mice were monitored for health status daily and for tumor growth initially by visual inspection twice per week. Once the tumors were palpable, measurements of tumor volume began to track tumor growth and estimate cell doubling time. Tumor volume was estimated using the equation V=(A*B^2)/2 where A is the long axis and B is the short axis. When tumors reached a volume of 500 mm^3 to 1,500 mm^3, they were harvested for study and for re-transplant as a patient-derived xenograft (PDX). Depending on the line, mechanical and/or chemical dissociation can be used to separate the individual cells for passage. Live cells were inoculated into naïve animals with 10,000 to 50,000 cells per animals
For efficacy studies, tumors were harvested from passaging studies and cells were dissociated into single cell suspension. Preparations were counted for live cells using Trypan blue exclusion and 10,000 to 50,000 cells were inoculated per mouse in Matrigel. […] Tumor growth was initially followed by palpability with measurements beginning once tumor volumes reached about 30 mm^3. Studies were randomized based on tumor size once a cohort of tumor-bearing mice reached 140 mm^3 to 180 mm^3. Animals were dosed by intraperitoneal injection twice a week for two weeks (q4dx4). […]
Tumor measurements were recorded twice a week using digital calipers and are shown as Mean±SEM. […]
Animals were dosed every four days for four cycles (Q4Dx4) by intraperitoneal injection except the BR5 study which was by intravenous injection on the same schedule. Tumor measurements were recorded one or two times per week using digital calipers and tumor volume was estimated using the equation V=(A×B^2)/2 where A is the long axis and B is the short axis. Animal body weights were measured and recorded at least once a week. […]
Tumor growth inhibition (TGI) was calculated using the equation % TGI=[1−(mean tumor volume of treated)/(mean tumor volume of vehicle)]. TGI was calculated at the latest possible time point, which was typically the last measurement before the control group was discontinued as described above. […]

B1: hu24 (antibody)
heavy: QVQLVQSGPEVKKPGASVKVSCKASGYTFTDYAVHWVRQAPGKRLEWIGVISTYNDYTYNNQDFKGRVTMTRDTSASTAYMELSRLRSEDTAVYYCARGNSYFYALDYWGQGTSVTVSS[letters of human IgG1 constant region omitted]
light: EIVLTQSPATLSLSPGERATLSCRASESVDSYGKSFMHWYQQKPGQAPRLLIYRASNLESGIPARFSGSGSGTDFTLTISSLEPEDFAVYYCQQSNEDPWTFGGGTKLEIKRTVAAPSVFIFPPSDEQLKSGTASVVCLLNNFYPREAKVQWKVDNALQSGNSQESVTEQDSKDSTYSLSSTLTLSKADYEKHKVYACEVTHQGLSSPVTKSFNRGEC
mean channel fluorescence of the viable cell population ([1]; EKVX, 0.1 μg/mL): 4
mean channel fluorescence of the viable cell population ([1]; EKVX, 0.3 μg/mL): 4
mean channel fluorescence of the viable cell population ([1]; EKVX, 1 μg/mL): 4
mean channel fluorescence of the viable cell population ([1]; EKVX, 3 μg/mL): 5
mean channel fluorescence of the viable cell population ([1]; H1975, 0.1 μg/mL): 91
mean channel fluorescence of the viable cell population ([1]; H1975, 0.3 μg/mL): 183
mean channel fluorescence of the viable cell population ([1]; H1975, 1 μg/mL): 310
mean channel fluorescence of the viable cell population ([1]; H1975, 3 μg/mL): 348
Regression (TTP, Days) or % TGI (BR5 TNBC PDX; 3 mg/kg, Q4Dx4 iv): None
effect on tumor growth (BR5 TNBC PDX; BR5, Q4Dx4, FIG. 16): did not inhibit tumor growth

B2: hu24-vc0101: hu24 conjugated through cysteines to vc0101 linker-payload; average DAR approximately 4 (conjugate)
heavy: QVQLVQSGPEVKKPGASVKVSCKASGYTFTDYAVHWVRQAPGKRLEWIGVISTYNDYTYNNQDFKGRVTMTRDTSASTAYMELSRLRSEDTAVYYCARGNSYFYALDYWGQGTSVTVSS[letters of human IgG1 constant region omitted]
light: EIVLTQSPATLSLSPGERATLSCRASESVDSYGKSFMHWYQQKPGQAPRLLIYRASNLESGIPARFSGSGSGTDFTLTISSLEPEDFAVYYCQQSNEDPWTFGGGTKLEIKRTVAAPSVFIFPPSDEQLKSGTASVVCLLNNFYPREAKVQWKVDNALQSGNSQESVTEQDSKDSTYSLSSTLTLSKADYEKHKVYACEVTHQGLSSPVTKSFNRGEC
mean channel fluorescence of the viable cell population ([1]; EKVX, 0.1 μg/mL): 4
mean channel fluorescence of the viable cell population ([1]; EKVX, 0.3 μg/mL): 4
mean channel fluorescence of the viable cell population ([1]; EKVX, 1 μg/mL): 4
mean channel fluorescence of the viable cell population ([1]; EKVX, 3 μg/mL): 5
mean channel fluorescence of the viable cell population ([1]; H1975, 0.1 μg/mL): 94
mean channel fluorescence of the viable cell population ([1]; H1975, 0.3 μg/mL): 196
mean channel fluorescence of the viable cell population ([1]; H1975, 1 μg/mL): 302
mean channel fluorescence of the viable cell population ([1]; H1975, 3 μg/mL): 341
Regression (TTP, Days) (BR5 TNBC PDX; 3 mg/kg, Q4Dx4 iv): Regression (49) Days
tumor regression without tumor growth through day (BR5 TNBC PDX; BR5, 3 mg/kg, Q4Dx4, intravenous, FIG. 16): ≥ 49 days
